# Experimental data from paper PMC4336329 (PLoS ONE, 2015).
# The whole screen tested about 310,000 compounds, of which about 14,000 (4.5%) showed an effect of 50% or more. The effect is printed as a negative number. This is one part of the list.
# Molecular target: human ether-à-go-go-related gene (hERG) potassium channel (human, UniProt Q12809)
# Assay: primary screen, population patch clamp on CHO cells stably expressing hERG
# 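Further: peak tail current of the secondary pulse compared with the same well before compound.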
# human ether-à-go-go-related gene (hERG) potassium channel, sequence (Q12809 whole entry, looked up): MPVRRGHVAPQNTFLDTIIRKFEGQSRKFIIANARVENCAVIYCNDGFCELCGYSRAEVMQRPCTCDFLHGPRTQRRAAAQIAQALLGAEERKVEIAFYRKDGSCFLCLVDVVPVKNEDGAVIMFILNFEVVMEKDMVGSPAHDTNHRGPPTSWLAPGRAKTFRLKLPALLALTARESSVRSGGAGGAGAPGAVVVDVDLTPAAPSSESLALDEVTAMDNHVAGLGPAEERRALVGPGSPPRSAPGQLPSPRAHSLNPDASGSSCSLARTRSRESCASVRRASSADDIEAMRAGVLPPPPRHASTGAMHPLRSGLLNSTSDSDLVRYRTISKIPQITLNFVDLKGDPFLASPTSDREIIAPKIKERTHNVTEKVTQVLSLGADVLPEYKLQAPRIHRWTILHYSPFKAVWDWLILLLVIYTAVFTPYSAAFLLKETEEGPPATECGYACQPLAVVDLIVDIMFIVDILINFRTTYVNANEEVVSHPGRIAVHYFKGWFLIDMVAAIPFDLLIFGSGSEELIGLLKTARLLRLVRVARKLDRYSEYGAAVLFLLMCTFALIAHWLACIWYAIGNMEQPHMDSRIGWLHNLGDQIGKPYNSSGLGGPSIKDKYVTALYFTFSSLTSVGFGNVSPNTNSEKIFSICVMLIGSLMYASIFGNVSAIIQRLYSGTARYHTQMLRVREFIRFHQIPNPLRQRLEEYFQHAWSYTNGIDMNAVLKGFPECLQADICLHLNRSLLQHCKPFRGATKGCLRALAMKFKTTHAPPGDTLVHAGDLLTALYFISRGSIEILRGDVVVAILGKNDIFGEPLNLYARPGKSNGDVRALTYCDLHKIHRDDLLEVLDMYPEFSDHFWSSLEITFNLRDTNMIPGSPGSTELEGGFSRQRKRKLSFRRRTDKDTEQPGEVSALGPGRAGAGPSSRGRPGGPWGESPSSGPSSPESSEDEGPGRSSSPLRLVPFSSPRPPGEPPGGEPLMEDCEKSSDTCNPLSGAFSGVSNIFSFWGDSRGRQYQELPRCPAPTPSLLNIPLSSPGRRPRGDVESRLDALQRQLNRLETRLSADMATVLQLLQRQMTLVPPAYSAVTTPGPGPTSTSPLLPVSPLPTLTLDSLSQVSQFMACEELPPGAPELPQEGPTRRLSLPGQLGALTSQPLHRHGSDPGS
row,SMILES,"hERG current change (%, negative = inhibition) at 10uM"
1,O=C(O)CNC(=O)C12CC3CC(CC(Cl)(C3)C1)C2,0.47%
2,CC(=O)N1CCOc2ccc(S(=O)(=O)N3CCCC(C)C3)cc21 (stereo not shown),3.44%
3,O=C(CSc1nnc(C2CC2)n1C1CC1)c1ccc(F)c(F)c1,-18.9%
4,Nc1nonc1C(=O)N1CCCC1,10.1%
5,CCn1c(SCC(=O)c2c(N)n(C)c(=O)n(C)c2=O)nnc1-c1ccccc1,12.2%
6,O=C(NNS(=O)(=O)c1ccccc1)c1cnn(-c2ccc(Cl)cc2)c1C(F)(F)F,-6.3%
7,Cc1cc(C)c(C(=O)COC(=O)Cn2cnnn2)cc1C,-3.33%
8,COC(CN(C)C(=O)C1CCC(CNS(=O)(=O)c2ccc(C)cc2)CC1)OC (stereo not shown),4.13%
9,CC1CN(c2cc(=O)n(-c3ccccc3)c(=O)[nH]2)CC(C)O1 (stereo not shown),4.91%
10,Cc1ccc(S(=O)(=O)Nc2cc(-c3ccccc3)nn2C)cc1,21.1%
11,COc1cccc(C2(O)CCN(CC(=O)Nc3nc(C)cs3)CC2)c1,20%
12,NC(=O)CC(NC(=O)Cc1ccc(Br)cc1)c1ccc(NCCN2CCCC2)c([N+](=O)[O-])c1 (stereo not shown),-9.92%
13,CCCc1[nH]nc2c1C(c1ccc(OC)c(CSC3=NCCS3)c1)C(C#N)=C(N)O2 (stereo not shown),-7.54%
14,O=S(=O)(NCCS(=O)(=O)N1CCN(c2ccccc2)CC1)c1ccc(F)cc1,-2.91%
15,O=C(OCC(=O)c1ccco1)c1ccc2ncsc2c1,-3.11%
16,CS(=O)(=O)N(CC(=O)N1CCC(C(N)=O)CC1)c1cc(C(F)(F)F)ccc1Cl,10.6%
17,NC(=O)N/N=C/c1sc(N2CCCCC2)nc1-c1cccs1,-21.2%
18,O=C(NCC(c1ccco1)N1CCCC1)c1ccc(Cl)cc1 (stereo not shown),-22.8%
19,COc1ccc(CCNC(=O)c2ccc3nc(-c4ccco4)c(-c4ccco4)nc3c2)cc1OC,-0.346%
20,COc1ccc([N+](=O)[O-])cc1NC(=O)c1cn(-c2ccc(Cl)cc2)c(=O)c2ccccc12,14.9%
21,Clc1nc(-c2cccnc2)nc2scc(-c3ccccc3)c12,4.7%
22,C=Cc1ccc2c(c1)OCCOCCOCCOCCOCCO2,-71.2%

row,SMILES,"hERG current change (%, negative = inhibition) at 10uM"
1,CC(CC(=O)NCc1ccc(Cl)cc1)S(=O)(=O)c1ccc2c(c1)NC(=O)CO2 (stereo not shown),-30.6%
2,CCCOc1ccc2c3c(c(=O)oc2c1)CCCC3,-3.23%
3,Cc1ccc(-n2nc3c(n2)/C(=N/O)CC/C3=N\O)cc1,-1.93%
4,c1ccc(C2[C@H]3CN(Cc4cccnc4)[C@H](c4ccccc4)C34CC2(c2ccccc2)C4)cc1 (stereo partly shown),-17.6%
5,CCOc1ccc(NC(=O)CC2C(=O)N(c3ccccc3)C(=O)N2CCc2cccs2)cc1 (stereo not shown),-28.2%
6,O=C(CN1C(=O)c2cccc3cccc(c23)C1=O)N1CCCCC1,0.0571%
7,CCN(CC)CCCOC(=O)C(c1ccccc1)c1ccccc1.Cl,-56.5%
8,CCC1C(=O)CC(c2ccccc2)NC1c1ccccc1 (stereo not shown),-21.4%
9,COc1cc2[nH]c(=S)n(C3CCCC3)c(=O)c2cc1OC,5.28%
10,C1COCCO1.Cc1onc(-c2ccccc2)c1C(=O)Nc1ccccc1C#N,4.1%
11,O=S(=O)(/N=C(/Nc1ccccc1F)c1ccccc1)c1ccccc1,4.57%
12,Cc1ccsc1C(=O)C1CCCN(Cc2cccc(OCCO)c2)C1 (stereo not shown),-16.3%
13,CCCCN(CCCC)Cc1ccc(C(=O)NN)o1,5.36%
14,CC(C)c1ccc(CN(C(=O)c2cccs2)C2CCS(=O)(=O)C2)cc1 (stereo not shown),-45.9%
15,COC(=O)c1ccc(N2CCN(C)CC2)c(NC(=O)c2cccnc2)c1,-2.77%
16,CCn1cc(C(=O)NC2CCCc3c2cnn3-c2cccc(C)c2C)cn1 (stereo not shown),12.4%
17,O=C1CC(C(=O)Nc2ccccc2)S/C(=N\NC(=O)c2ccccc2Cl)N1 (stereo not shown),16.5%
18,CC1CCCN(C(=O)CCCn2c(=S)[nH]c3ccccc3c2=O)C1 (stereo not shown),-1.31%
19,CCOc1cccc(C(=O)Nc2ccc(NC(=O)c3ccccc3)c(C)c2)c1,-16.3%
20,COc1ccc2cc3c(N)nn(C(=O)c4ccc(F)cc4)c3nc2c1,11.4%
21,O=C(Cc1cccs1)N1CCC(c2nc3c(nnn3Cc3ccccc3)c(=O)[nH]2)CC1,-56%
22,O=C(Cc1cc(=O)[nH]c(=O)[nH]1)NCC1CCCO1 (stereo not shown),5.69%

row,SMILES,"hERG current change (%, negative = inhibition) at 10uM"
1,O=C(c1ccc(Cl)cc1)c1ccc(Oc2cc(NN3CCCCC3)c([N+](=O)[O-])cc2[N+](=O)[O-])cc1,0.565%
2,O=C(CCC(=O)Nc1nnc(C2CCCCC2)s1)Nc1ccccc1,27.6%
3,CCN1CCN(Cc2ccc(NC(=O)c3ccc(C)c(NC(=O)C(=O)c4c[nH]c5ccccc45)c3)cc2C(F)(F)F)CC1,9.38%
4,COc1ccc(NC(=O)COC(=O)CCCC2=NS(=O)(=O)c3ccccc3N2)cc1,15.3%
5,O=C(NCCCCCCNC(=O)OCCO)OCCO,28.4%
6,CCOc1ccc(C2NC(=O)c3sc(=S)n(-c4ccccc4)c3N2)cc1 (stereo not shown),1.7%
7,Cc1cc(C)n2nc(SCCCC(=O)c3ccc(F)cc3)nc2n1,-13.9%
8,C=CCn1c(O)c(/C=N/NC(=O)c2ccncc2)c(=O)[nH]c1=O,20.2%
9,O=C(NC1CCC(O)CC1)c1cccc2cccnc12 (stereo not shown),7.2%
10,CCN1C(=O)/C(=C/c2cccs2)S/C1=N\S(=O)(=O)c1ccc(C)cc1,23.1%
11,COc1c2ccoc2c(OC)c2oc(=O)ccc12,-5.65%
12,N#Cc1ccccc1COc1ccc(/C=C/C(=O)O)cc1,17.8%
13,COc1ccc(OC)c(C(C(=O)NC2CCCCC2)N(C(=O)c2snc(C(N)=O)c2N)c2ccccc2OC)c1 (stereo not shown),14.8%
14,CC(C)(C)[C@H]1C=C(C(=O)NCc2nc3ccccc3[nH]2)O[C@@H](OCCCCO)C1,-18%
15,Fc1ccc(-c2noc(C3CCN(Cc4cccnc4)CC3)n2)cc1,-51.5%
16,COc1ccc2c(c1)[C@H]1[C@H](CO2)[C@H](c2ccccc2)[C@]2(C)C(=O)Nc3cc(F)c(F)cc3C(=O)N12,5.99%
17,CSc1ccc(NC(=O)Nc2ccccc2C(N)=O)cc1,7.02%
18,CC(C)c1ccc(NC(=O)COC(=O)c2cc(=O)[nH]c3ccccc23)cc1,-8.12%
19,CC1(OC(=O)C2CCCC2)C(=O)C=C2C=C(c3ccsc3)N(C3CC3)C=C2C1=O (stereo not shown),16.5%
20,COc1ccccc1C(=O)Nc1ccc(S(=O)(=O)Nc2cnc3ccccc3n2)cc1,-2.74%
21,CCc1ccccc1Nc1nc(N)nc(COC(=O)c2c(C)noc2C)n1,-4.82%
22,COC(=O)C1C(=O)C=C(Nc2ccc(F)cc2F)CC1c1ccccc1 (stereo not shown),-16.9%

row,SMILES,"hERG current change (%, negative = inhibition) at 10uM"
1,Cn1cccc1-c1nc2ccc(NC(=O)c3ccc([N+](=O)[O-])cc3)cc2[nH]1,-10.5%
2,O=c1ccc(OCCOc2ccccc2)nn1-c1ccccc1,-13.8%
3,Cc1ccc(S(=O)(=O)Cc2ccc(C(=O)NCCCN3CCCC3=O)o2)cc1,8.72%
4,CCOC(=O)c1c(S(=O)(=O)NCC2CCN(Cc3cccc(F)c3)CC2)c(C)n(C)c1C,-22.7%
5,Cc1cccc(CNC(=O)C(C)n2nc(C)c3c(C)n(-c4ccccc4)nc3c2=O)c1 (stereo not shown),-18.3%
6,Cc1ccc(N(CC(=O)NCc2ccc(F)cc2)S(=O)(=O)c2c(C)n[nH]c2C)cc1,-22%
7,c1ccc2c(Nc3nnc(-c4ccncc4)s3)cccc2c1,-14.6%
8,CC1Cc2ccccc2N1C(=O)c1nn(C)cc1Br (stereo not shown),11.1%
9,O=C(CN1CCN(c2ccccc2O)CC1)NC(=O)NC1CCCC1,-0.609%
10,Cc1ccc(-c2c(C(=O)NNC(=S)NCC3CCCO3)csc2C)cc1 (stereo not shown),32.2%
11,N/C(Cc1ccc([N+](=O)[O-])cc1)=N\OC(=O)CC1CCCCC1,-68.5%
12,CC(C)CC1NC(=O)c2ccccc2-n2c1nc1ccc(F)cc1c2=O (stereo not shown),14.7%
13,CC(C)(C)N(Cc1ccccc1)C(=O)CN1C(=O)NC2(CCCCCC2)C1=O,-5.48%
14,CC1CCc2sc(C(=O)N3CCN(c4ncccn4)CC3)cc2C1 (stereo not shown),-11.5%
15,COc1cccc(NC(=O)C/C(C)=N/NC(=O)C2CCCCC2)c1,8.65%
16,CC(=O)O[C@H]1C[C@@]2(O)[C@@H](OC(=O)c3ccccc3)C3[C@@](C)([C@@H](O)C[C@H]4OC[C@@]34OC(C)=O)[C@@H](O)[C@H](OC(C)=O)C(=C1C)C2(C)C (stereo partly shown),2.26%
17,O=c1cc(CSc2nc3ccccc3[nH]2)c2ccccc2[nH]1,-6.39%
18,Cc1cc(C)n2nc(C(=O)OCCOc3ccc(Br)cc3)nc2n1,-55.3%
19,COc1ccccc1-c1cc2nc(C)cc(C)n2n1,12.3%
